From a collection of fitness landscapes (doi:10.1016/j.celrep.2020.107928)
The full ranking holds about 81,000 sequences; the median of “one-hybrid fitness for binding NBS DNA” is about -0.1, and the highest 2% start at about 0.36. This is one part of the list.

B1: Caulobacter ParB omega fusion; a variant is named by its letters at X, in order, B8GW30 (parent)
chain: MESVVVGEPGMSEGRRGLGRGLSALLGEVDAAPAQAPGEQLGGSREAPIEILQRNPDQPRRTFREEDLEDLSNSIREKGVLQPILVRPSPDTAGEYQIVAGERAWRAAQRAGLKTVPIMVRELDDLAVLEIGIIENVQRADLNVLEEALSYKVLMEKFERTQENIAQTIGKSXSHVANXMRLLXLPDEVQSYLVSGELTAXHARAIAAAADPVALAKQIIEGGLSVRETEALARKAPNLSAGKSKGGRPPRVKDTDTQALESDLSSVLGLDVSIDHRGSTGTLTITYATLEQLDDLCNRLTRGI

Variants of: B1
Assay: one-hybrid fitness for binding NBS DNA (the Noc-binding site; scaled: cognate 1, non-cognate 0); higher = stronger binding
Details: with NBS DNA site
In short: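 Fitness is the rescaled log change in variant-to-wild-type read ratio, measured by Illumina sequencing of plasmids before and after bacterial one-hybrid selection. The scale puts cognate at 1 and non-cognate at 0. Selection of Caulobacter ParB libraries, four specificity codons randomised, took place in E. coli USO with a HIS3 reporter, site 19 bp from the promoter, over 48 hours at 37°C on M9-minus-histidine with 0.1 mM IPTG and 5 mM 3-AT.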

Row | Variant | one-hybrid fitness for binding NBS DNA
1 | LITQ | ≤ 0.2
2 | RPVQ | 0.397
3 | RKEV | ≤ 0.2
4 | SKMQ | ≤ 0.2
5 | MWNS | ≤ 0.2
6 | GHYT | ≤ 0.2
7 | IAPE | ≤ 0.2
8 | VFSN | ≤ 0.2
9 | ITMC | ≤ 0.2
10 | APWE | ≤ 0.2
11 | KCMT | ≤ 0.2
12 | ETSA | ≤ 0.2
13 | EIIG | ≤ 0.2
14 | SKYD | ≤ 0.2
15 | SFQG | ≤ 0.2
16 | TVNP | ≤ 0.2
17 | RTII | ≤ 0.2
18 | HALL | ≤ 0.2
19 | DSHC | ≤ 0.2
20 | GWGD | ≤ 0.2
21 | IHNC | ≤ 0.2
22 | ALLY | ≤ 0.2
23 | SHMI | ≤ 0.2
24 | PCMT | ≤ 0.2
25 | RQIY | ≤ 0.2
26 | TTKA | ≤ 0.2

Row | Variant | one-hybrid fitness for binding NBS DNA
27 | KSHG | ≤ 0.2
28 | TEPS | ≤ 0.2
29 | VTFG | ≤ 0.2
30 | YKHS | ≤ 0.2
31 | LWHN | ≤ 0.2
32 | GQPL | ≤ 0.2
33 | HSDC | ≤ 0.2
34 | RPQN | ≤ 0.2
35 | TASW | ≤ 0.2
36 | LMNP | ≤ 0.2
37 | ANDS | ≤ 0.2
38 | KVQS | ≤ 0.2
39 | GMHD | ≤ 0.2
40 | NKTF | ≤ 0.2
41 | CQLR | ≤ 0.2
42 | SGAL | ≤ 0.2
43 | SRLL | ≤ 0.2
44 | VQDR | ≤ 0.2
45 | WIMG | ≤ 0.2
46 | LTFA | ≤ 0.2
47 | TSGY | ≤ 0.2
48 | ELMG | ≤ 0.2
49 | ITWM | ≤ 0.2
50 | FHKY | ≤ 0.2
51 | NITG | ≤ 0.2
52 | GWSM | ≤ 0.2

Row | Variant | one-hybrid fitness for binding NBS DNA
53 | RRSA | 0.605
54 | CYRT | ≤ 0.2
55 | GTHH | ≤ 0.2
56 | KNLW | ≤ 0.2
57 | ICAS | ≤ 0.2
58 | DTWE | ≤ 0.2
59 | CNCN | ≤ 0.2
60 | LPRY | ≤ 0.2
61 | FWHR | 0.228
62 | NPCI | ≤ 0.2
63 | SVWD | ≤ 0.2
64 | VRYS | ≤ 0.2
65 | RVLD | ≤ 0.2
66 | DLII | ≤ 0.2
67 | LTPI | ≤ 0.2
68 | KTKQ | ≤ 0.2
69 | MPTG | ≤ 0.2
70 | QNPK | ≤ 0.2
71 | DIRN | ≤ 0.2
72 | LILK | ≤ 0.2
73 | NPIS | ≤ 0.2
74 | FCIG | ≤ 0.2
75 | HWSR | ≤ 0.2
76 | MNCS | ≤ 0.2
77 | TNAR | ≤ 0.2
78 | TRAF | ≤ 0.2

Row | Variant | one-hybrid fitness for binding NBS DNA
79 | HFGR | ≤ 0.2
80 | ATSN | ≤ 0.2
81 | QGRH | ≤ 0.2
82 | RWNM | ≤ 0.2
83 | TVCS | ≤ 0.2
84 | YVQM | ≤ 0.2
85 | KTPY | ≤ 0.2
86 | YGLL | ≤ 0.2
87 | VLLD | ≤ 0.2
88 | HFFR | ≤ 0.2
89 | GSRM | ≤ 0.2
90 | PLYW | ≤ 0.2
91 | HPTG | ≤ 0.2
92 | RSKE | ≤ 0.2
93 | RTWG | ≤ 0.2
94 | TAYF | ≤ 0.2
95 | VKQC | ≤ 0.2
96 | EMWS | ≤ 0.2
97 | WPPP | ≤ 0.2
98 | VRDC | ≤ 0.2
99 | NMMT | ≤ 0.2
100 | DMVR | ≤ 0.2
101 | RTCF | ≤ 0.2
102 | RSHG | ≤ 0.2
103 | TAEG | ≤ 0.2
104 | WVHV | ≤ 0.2

Row | Variant | one-hybrid fitness for binding NBS DNA
105 | SSPA | ≤ 0.2
106 | IMPE | ≤ 0.2
107 | LGHV | ≤ 0.2
108 | PDGL | ≤ 0.2
109 | RYQT | 0.381
110 | DSDT | ≤ 0.2
111 | YEHG | ≤ 0.2
112 | PCEW | ≤ 0.2
113 | RIVW | ≤ 0.2
114 | RVND | ≤ 0.2
115 | ALKC | ≤ 0.2
116 | NYAV | ≤ 0.2
117 | SPPA | ≤ 0.2
118 | QITF | ≤ 0.2
119 | WYGR | ≤ 0.2
120 | HMNS | ≤ 0.2
121 | ATYG | ≤ 0.2
122 | DLHM | ≤ 0.2
123 | GSFC | ≤ 0.2
124 | RSTH | ≤ 0.2
125 | SPRT | ≤ 0.2
126 | CKLP | ≤ 0.2
127 | FSTG | ≤ 0.2
128 | SPRI | ≤ 0.2
129 | FRNV | ≤ 0.2
130 | RMSK | ≤ 0.2

Row | Variant | one-hybrid fitness for binding NBS DNA
131 | INSS | ≤ 0.2
132 | CMRY | ≤ 0.2
133 | VVND | ≤ 0.2
134 | MMWN | ≤ 0.2
135 | QPGG | ≤ 0.2
136 | YTIN | ≤ 0.2
137 | QTID | ≤ 0.2
138 | LSET | ≤ 0.2
139 | PPNV | ≤ 0.2
140 | AMPI | ≤ 0.2
141 | PMGH | ≤ 0.2
142 | PFTP | ≤ 0.2
143 | QEDC | ≤ 0.2
144 | DAAR | ≤ 0.2
145 | TPVV | ≤ 0.2
146 | QRQQ | 0.397
147 | PCDS | ≤ 0.2
148 | HERF | ≤ 0.2
149 | RAHP | ≤ 0.2
150 | HRRM | ≤ 0.2
151 | FAEL | ≤ 0.2
152 | MRKR | 0.307
153 | GART | ≤ 0.2
